Results on one molecule are retold here after PMC9842190 (Seminars in immunology, 2022).

This test addresses Human C3b, site-specifically biotinylated at its thioester cysteine (human, UniProt P01024 23-667; P01024 fragment). Kind of test: SPR. (Surface plasmon resonance follows binding to a sensor surface in real time, without labels.)
Sequence of UniProt P01024 (P01024 23-667, chain 1 of 2): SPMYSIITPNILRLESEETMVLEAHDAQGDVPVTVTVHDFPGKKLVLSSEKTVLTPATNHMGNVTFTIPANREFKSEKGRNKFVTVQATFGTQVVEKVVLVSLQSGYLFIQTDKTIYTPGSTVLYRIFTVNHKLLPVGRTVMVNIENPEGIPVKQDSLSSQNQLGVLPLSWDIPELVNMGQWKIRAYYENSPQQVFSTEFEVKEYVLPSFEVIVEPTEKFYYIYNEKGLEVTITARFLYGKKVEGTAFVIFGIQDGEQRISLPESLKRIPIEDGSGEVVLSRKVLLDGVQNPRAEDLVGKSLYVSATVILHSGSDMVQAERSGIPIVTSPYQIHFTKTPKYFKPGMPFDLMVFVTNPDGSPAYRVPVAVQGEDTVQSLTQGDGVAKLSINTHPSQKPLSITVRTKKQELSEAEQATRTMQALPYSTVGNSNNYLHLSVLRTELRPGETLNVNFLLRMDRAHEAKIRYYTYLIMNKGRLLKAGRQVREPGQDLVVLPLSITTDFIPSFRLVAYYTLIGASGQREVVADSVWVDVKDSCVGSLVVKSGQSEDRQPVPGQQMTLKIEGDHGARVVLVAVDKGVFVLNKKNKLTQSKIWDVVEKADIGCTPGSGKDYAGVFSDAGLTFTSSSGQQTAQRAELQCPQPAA
Sequence of UniProt P01024 (P01024 749-1663, chain 2 of 2): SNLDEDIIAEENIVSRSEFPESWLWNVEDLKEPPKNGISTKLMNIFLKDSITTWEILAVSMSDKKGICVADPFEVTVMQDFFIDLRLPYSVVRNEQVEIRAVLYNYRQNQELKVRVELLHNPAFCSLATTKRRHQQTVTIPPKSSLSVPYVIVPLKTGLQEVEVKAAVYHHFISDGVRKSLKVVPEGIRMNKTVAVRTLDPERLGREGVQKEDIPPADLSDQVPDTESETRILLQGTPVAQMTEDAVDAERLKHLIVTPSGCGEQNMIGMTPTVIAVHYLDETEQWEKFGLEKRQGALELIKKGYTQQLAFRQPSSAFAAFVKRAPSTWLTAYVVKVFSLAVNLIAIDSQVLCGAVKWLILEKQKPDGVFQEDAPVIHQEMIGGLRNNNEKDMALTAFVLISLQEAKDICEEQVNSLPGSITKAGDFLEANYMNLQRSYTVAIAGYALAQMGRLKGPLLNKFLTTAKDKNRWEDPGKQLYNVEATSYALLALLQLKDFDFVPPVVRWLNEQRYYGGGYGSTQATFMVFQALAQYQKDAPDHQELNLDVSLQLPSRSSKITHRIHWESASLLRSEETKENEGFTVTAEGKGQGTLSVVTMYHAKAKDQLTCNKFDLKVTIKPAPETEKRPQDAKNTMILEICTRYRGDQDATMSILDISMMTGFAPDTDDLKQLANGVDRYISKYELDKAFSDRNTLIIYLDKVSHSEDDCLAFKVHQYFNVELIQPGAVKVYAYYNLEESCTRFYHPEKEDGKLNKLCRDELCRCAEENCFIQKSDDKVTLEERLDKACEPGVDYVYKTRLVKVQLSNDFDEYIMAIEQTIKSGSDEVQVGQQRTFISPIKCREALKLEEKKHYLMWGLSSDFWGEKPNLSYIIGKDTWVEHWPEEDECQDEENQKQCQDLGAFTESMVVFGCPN

B1: Human Factor B (enzyme)
chain: TPWSLARPQGSCSLEGVEIKGGSFRLLQEGQALEYVCPSGFYPYPVQTRTCRSTGSWSTLKTQDQKTVRKAECRAIHCPRPHDFENGEYWPRSPYYNVSDEISFHCYDGYTLRGSANRTCQVNGRWSGQTAICDNGAGYCSNPGIPIGTRKVGSQYRLEDSVTYHCSRGLTLRGSQRRTCQEGGSWSGTEPSCQDSFMYDTPQEVAEAFLSSLTETIEGVDAEDGHGPGEQQKRKIVLDPSGSMNIYLVLDGSDSIGASNFTGAKKCLVNLIEKVASYGVKPRYGLVTYATYPKIWVKVSEADSSNADWVTKQLNEINYEDHKLKSGTNTKKALQAVYSMMSWPDDVPPEGWNRTRHVIILMTDGLHNMGGDPITVIDEIRDLLYIGKDRKNPREDYLDVYVFGVGPLVNQVNINALASKKDNEQHVFKVKDMENLEDVFYQMIDESQSLSLCGMVWEHRKGTDYHKQPWQAKISVIRPSKGHESCMGAVVSEYFVLTAAHCFTVDDKEHSIKVSVGGEKRDLEIEVVLFHPNYNINGKKEAGIPEFYDYDVALIKLKNKLKYGQTIRPICLPCTEGTTRALRLPPTTTCQQQKEELLPAQDIKALFVSEEEKKLTRKEVYIKNGDKKGSCERDAQYAPGYDKVKDISEVVTPRFLCTGGVSPYADPNTCRGDSGGPLIVHKRSRFIQVGVISWGVVDVCKNQKRQKQVPAHARDFHINLFQVLPWLKEKLQDEDLGFL
In the case of B1, the binding result is “binds”.
